Reference: the supplement of paper PMC4967469
Lines with a small IC50 respond at low doses; a limit (>, <) means that the fit lies beyond the doses tested. For AUC the same curve is integrated over the 256-fold range of doses and scaled to a fraction: 1 means no effect, lower means more sensitive. For some assays here: Any top dose called inferred comes from the curve model; the source does not state it. For some assays here: Drugs with an entry number were screened twice under separate entries, and the two screens often disagree.

Key:
Experiment in all cases: Viability of human cancer cell lines after 72 h of drug (GDSC screen)
[1] = compound: O=c1[nH]cc(F)c(=O)[nH]1 [5-Fluorouracil]; settings: top dose 32 µM; top dose inferred
Description: (§1)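 Human cancer cell lines in 384-well plates, medium with 10% serum, drug for 72 h over a 256-fold dose range (nine 2-fold or five 4-fold steps up to the top dose). Adherent lines were fixed and stained with the nucleic acid dye Syto60, suspension lines read with resazurin; signal relative to control wells, capped at 0 and 100%. One two-parameter sigmoid per drug and line, fitted in a mixed model over all curves with the slope shared within a line.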

[2] = compound: COc1cc(F)c(F)c(Nc2ccc(I)cc2F)c1NS(=O)(=O)C1(C[C@H](O)CO)CC1 [RDEA119]; settings: top dose 5 µM, top dose inferred
Description: as §1

[3] = compound: C#Cc1cccc(Nc2ncnc3cc(OC)c(OCCCCCCC(=O)NO)cc23)c1 [CUDC-101]; settings: top dose 5.12 µM; top dose inferred
Description: as §1

[4] = compound: NCC(=O)Nc1ccc(-n2nc(C(F)(F)F)cc2-c2ccc3c(ccc4ccccc43)c2)cc1 [OSU-03012]; settings: top dose 16 µM; top dose inferred
Description: as §1

[5] = compound: OC[C@H](Cc1ccccc1)Nc1nc(Oc2ccc3c(c2)CCC3)nc2c1ncn2Cc1ccc(-c2ccccc2)cc1 [QS11]; settings: top dose 10.24 µM
Description: as §1

[6] = compound: Fc1cc(-c2ccnc(Nc3ccc(-n4cnc(N5CCOCC5)n4)cc3)n2)cc(N2CCOCC2)c1 [JNK-9L]; settings: top dose 5.12 µM; top dose inferred
Description: as §1

[7] = compound: CC(C)(C)c1cc(NC(=O)Nc2ccc(-c3cn4c(n3)sc3cc(OCCN5CCOCC5)ccc34)cc2)no1 [AC220]; settings: top dose 1.024 µM; top dose inferred
Description: as §1

## WM1552C (melanoma, adherent)
[1]
  AUC: 0.642
  IC50: 4.97 µM
[2]; screen: GDSC drug entry 1014
  AUC: 0.749
  IC50: 1.63 µM
[2]; screen: GDSC drug entry 1526
  AUC: 0.678
  IC50: 0.982 µM
[3]
  AUC: 0.636
  IC50: 763 nM
[4]
  AUC: 0.58
  IC50: 1.66 µM
[5]
  AUC: 0.88
  IC50: > 10.2 µM
[6]
  AUC: 0.605
  IC50: 625 nM
[7]
  AUC: 0.982
  IC50: > 1020 nM

## WM-115 (melanoma, adherent)
[1]
  AUC: 0.864
  IC50: > 32 µM
[2]; screen: GDSC drug entry 1014
  AUC: 0.551
  IC50: 0.445 µM
[2]; screen: GDSC drug entry 1526
  AUC: 0.69
  IC50: 1.21 µM
[3]
  AUC: 0.63
  IC50: 796 nM
[4]
  AUC: 0.888
  IC50: > 16 µM
[5]
  AUC: 0.982
  IC50: > 10.2 µM
[6]
  AUC: 0.96
  IC50: > 5120 nM
[7]
  AUC: 0.885
  IC50: > 1020 nM

## WSU-DLCL2 (B-cell lymphoma, suspension)
[1]
  AUC: 0.976
  IC50: > 32 µM
[2]; screen: GDSC drug entry 1014
  AUC: 0.992
  IC50: > 5 µM
[2]; screen: GDSC drug entry 1526
  AUC: 0.992
  IC50: > 5 µM
[3]
  AUC: 0.877
  IC50: 3670 nM
[4]
  AUC: 0.865
  IC50: 10.3 µM
[5]
  AUC: 0.993
  IC50: > 10.2 µM
[6]
  AUC: 0.966
  IC50: > 5120 nM
[7]
  AUC: 0.992
  IC50: > 1020 nM

## WSU-NHL (lymphoid neoplasm, suspension)
[1]
  AUC: 0.896
  IC50: 30.9 µM
[2]; screen: GDSC drug entry 1014
  AUC: 0.961
  IC50: > 5 µM
[3]
  AUC: 0.567
  IC50: 476 nM
[4]
  AUC: 0.715
  IC50: 3.71 µM
[5]
  AUC: 0.966
  IC50: > 10.2 µM
[6]
  AUC: 0.609
  IC50: 614 nM
[7]
  AUC: 0.989
  IC50: > 1020 nM

## YAPC (pancreas, adherent)
[1]
  AUC: 0.927
  IC50: > 32 µM
[2]; screen: GDSC drug entry 1014
  AUC: 0.877
  IC50: > 5 µM
[2]; screen: GDSC drug entry 1526
  AUC: 0.926
  IC50: > 5 µM
[3]
  AUC: 0.84
  IC50: 4850 nM
[4]
  AUC: 0.95
  IC50: > 16 µM
[5]
  AUC: 0.983
  IC50: > 10.2 µM
[6]
  AUC: 0.685
  IC50: 1210 nM
[7]
  AUC: 0.984
  IC50: > 1020 nM

## YT (lymphoid neoplasm, suspension)
[1]
  AUC: 0.344
  IC50: 0.797 µM
[2]; screen: GDSC drug entry 1014
  AUC: 0.632
  IC50: 0.678 µM
[2]; screen: GDSC drug entry 1526
  AUC: 0.992
  IC50: > 5 µM
[3]
  AUC: 0.249
  IC50: 70.1 nM
[4]
  AUC: 0.739
  IC50: 4.22 µM
[5]
  AUC: 0.939
  IC50: > 10.2 µM
[6]
  AUC: 0.527
  IC50: 376 nM
[7]
  AUC: 0.948
  IC50: > 1020 nM

## huH-1 (liver, adherent)
[1]
  AUC: 0.984
  IC50: > 32 µM
[2]; screen: GDSC drug entry 1014
  AUC: 0.879
  IC50: > 5 µM
[2]; screen: GDSC drug entry 1526
  AUC: 0.905
  IC50: > 5 µM
[3]
  AUC: 0.978
  IC50: > 5120 nM
[4]
  AUC: 0.869
  IC50: > 16 µM
[5]
  AUC: 0.984
  IC50: > 10.2 µM
[6]
  AUC: 0.771
  IC50: 2430 nM
[7]
  AUC: 0.984
  IC50: > 1020 nM

## no-10 (glioma, adherent)
[1]
  AUC: 0.945
  IC50: > 32 µM
[2]; screen: GDSC drug entry 1526
  AUC: 0.878
  IC50: > 5 µM
[3]
  AUC: 0.645
  IC50: 888 nM
[4]
  AUC: 0.783
  IC50: 8.36 µM
[5]
  AUC: 0.963
  IC50: > 10.2 µM
[6]
  AUC: 0.666
  IC50: 1030 nM
[7]
  AUC: 0.981
  IC50: > 1020 nM

## no-11 (glioma, adherent)
[1]
  AUC: 0.901
  IC50: > 32 µM
[2]; screen: GDSC drug entry 1014
  AUC: 0.866
  IC50: > 5 µM
[2]; screen: GDSC drug entry 1526
  AUC: 0.945
  IC50: > 5 µM
[3]
  AUC: 0.748
  IC50: 2020 nM
[4]
  AUC: 0.785
  IC50: 8.79 µM
[5]
  AUC: 0.964
  IC50: > 10.2 µM
[6]
  AUC: 0.612
  IC50: 705 nM
[7]
  AUC: 0.982
  IC50: > 1020 nM
